Results from publication PMC4336329 (PLoS ONE, 2015).
The campaign covered roughly 310,000 compounds. About 14,000 (4.5%) showed an effect of 50% or more. Effects have a minus sign here. This is one part of the list.

Biological target: human ether-à-go-go-related gene (hERG) potassium channel (human, UniProt Q12809)
Experiment: primary screen, population patch clamp on CHO cells stably expressing hERG
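Also: peak tail current of the secondary pulse compared with the same well before compound.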

Sequence of human ether-à-go-go-related gene (hERG) potassium channel (Q12809 whole entry, looked up): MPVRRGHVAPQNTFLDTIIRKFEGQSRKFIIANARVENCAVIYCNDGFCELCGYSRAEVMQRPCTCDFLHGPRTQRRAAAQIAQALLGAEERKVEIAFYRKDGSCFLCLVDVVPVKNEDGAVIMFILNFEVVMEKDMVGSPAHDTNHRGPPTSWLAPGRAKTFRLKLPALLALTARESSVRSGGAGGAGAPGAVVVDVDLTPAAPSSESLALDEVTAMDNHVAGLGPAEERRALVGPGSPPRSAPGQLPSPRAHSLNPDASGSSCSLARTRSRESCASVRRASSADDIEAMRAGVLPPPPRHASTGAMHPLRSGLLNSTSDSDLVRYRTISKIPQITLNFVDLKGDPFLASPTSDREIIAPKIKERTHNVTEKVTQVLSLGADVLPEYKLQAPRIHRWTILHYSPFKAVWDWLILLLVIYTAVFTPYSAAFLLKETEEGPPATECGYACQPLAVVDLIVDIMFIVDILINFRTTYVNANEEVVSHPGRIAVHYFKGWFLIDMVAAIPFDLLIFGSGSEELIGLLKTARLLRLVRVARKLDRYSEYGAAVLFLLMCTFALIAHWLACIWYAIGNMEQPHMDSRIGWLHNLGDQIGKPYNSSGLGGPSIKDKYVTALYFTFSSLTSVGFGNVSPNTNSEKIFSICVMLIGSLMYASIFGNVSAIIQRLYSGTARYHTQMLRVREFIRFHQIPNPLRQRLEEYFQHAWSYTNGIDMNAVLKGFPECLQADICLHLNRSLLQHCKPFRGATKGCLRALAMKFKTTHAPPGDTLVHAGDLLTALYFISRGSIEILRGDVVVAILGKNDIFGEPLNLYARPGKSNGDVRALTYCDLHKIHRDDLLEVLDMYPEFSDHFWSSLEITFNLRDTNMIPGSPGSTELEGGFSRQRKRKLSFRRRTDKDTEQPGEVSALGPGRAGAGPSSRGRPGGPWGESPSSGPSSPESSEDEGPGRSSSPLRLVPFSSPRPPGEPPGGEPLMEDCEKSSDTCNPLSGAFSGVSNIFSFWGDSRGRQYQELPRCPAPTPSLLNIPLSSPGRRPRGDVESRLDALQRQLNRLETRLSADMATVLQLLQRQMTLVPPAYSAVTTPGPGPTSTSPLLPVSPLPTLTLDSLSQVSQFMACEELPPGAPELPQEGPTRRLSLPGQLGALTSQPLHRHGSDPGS

Compound | hERG current change (%, negative = inhibition) at 10uM [%]
Cc1ccc(S(=O)(=O)NC2=NCN(CCOC(=O)c3ccc([N+](=O)[O-])cc3)CN2)cc1 | 12.7
COc1cc(/C=C(\C#N)c2nc3ccccc3[nH]2)cc(Br)c1OCc1ccccc1 | 0.571
CCOc1cc(CNC2CCCC2)c(Cl)cc1OCC(=O)Nc1ccccc1 | -67.8
Cn1c(=O)c2c(ncn2CC(O)CNc2ccc(Br)cc2)n(C)c1=O (centres unmarked) | -24.3
CN(C(=O)c1cccc(NC(=O)Cc2ccccc2)c1)c1ccccc1 | 7.73
COc1c(C)cc(C(=O)C2CCCN(Cc3c(C)n(C)n(-c4ccccc4)c3=O)C2)cc1C (centres unmarked) | -19.9
Cc1nc(-c2cccnc2)sc1C(N)=O | 6.15
COc1ccc(C2/C(=C(/O)c3ccccc3)C(=O)C(=O)N2CC(C)O)c(OC)c1 (centres unmarked) | -1.25
COc1ccccc1C(C)Nc1ccc(S(=O)(=O)N2CCN(C)CC2)cc1[N+](=O)[O-] (centres unmarked) | -5.73
CN(Cc1ccco1)C(=O)c1ccc(CNS(=O)(=O)c2ccc3c(c2)C(C)(C)C(=O)N3C)cc1 | -4.96
CCNc1nc(SCC(=O)Nc2ccc(Cl)c(Cl)c2)nc(N2CCOCC2)n1 | -10.3
O=C(Nc1ccc(N2CCOCC2)cc1)c1cn2ccccc2n1 | 4.75
CCOP(=O)(OCC)c1nc(-c2ccccc2Cl)oc1N1CCOCC1 | 9.31
O=C(CSC1=NCCS1)Nc1ccccc1F | 16.3
CCOc1ccc(N2CC(C(=O)Nc3ccccc3F)CC2=O)cc1 (centres unmarked) | -13.5
C=CCOC(=O)C1=C(C)NC(C)=C(C(=O)OCC=C)C1c1cccs1 | -12.6
COC(=O)c1c(NC(=O)C2(C)Cc3ccccc3C(=O)O2)sc2c1CCCC2 (centres unmarked) | 12.7
CCCCC(=O)OCC(=O)c1ccc(OCC)cc1 | 9.86
Cc1cc(NC(=O)/C=C\C(=O)O)c([N+](=O)[O-])cc1C | 11.6
COc1cc(NC(=O)c2ccnnc2)cc(C(=O)Nc2cccc(C(F)(F)F)c2)c1 | -52.8
Cn1cc(Cl)c(C(=O)Nc2cnn(Cc3ccc(F)cc3)c2)n1 | -24.2
CC(C)=C1SC(N2CCN(c3cccc(C(F)(F)F)c3)CC2)=NC1=O | -2.7

Compound | hERG current change (%, negative = inhibition) at 10uM [%]
Cc1ccc2c(c1)CCCN2N=O | 0.938
COC(=O)COc1nsnc1N1CCOCC1 | 1.04
CCOC(=O)C(C)CC(C)C(=O)N1CCOCCN(C(=O)C(C)CC(C)C(=O)OCC)CCOCC1 (centres unmarked) | -9.48
CCn1ccnc1CNC(=O)C1CCC(=O)N(Cc2cccc(C(F)(F)F)c2)C1 (centres unmarked) | -7.28
O=c1oc(-c2cccs2)nc2scc(-c3cccs3)c12 | 14.3
Cc1ccc(NC(=O)NC2CCCCCCC2)c(C)c1 | 14.8
CCCC(=O)Nc1ccccc1-c1nnc(SCC)[nH]c1=O | 0.917
N#CCc1nc(-c2cc3ccccc3oc2=O)cs1 | 4.23
O=[N+]([O-])c1ccc(O)c(CN2CCCCCC2)c1 | 18.6
NC(=O)Nc1ccc(C(=O)OCC(=O)Nc2cccc(S(=O)(=O)NC3=NCCCCC3)c2)cc1 | -4.61
COc1ccc(C2=NN(c3ccccc3)C(c3ccc(OC)c(OC)c3)C2)cc1 (centres unmarked) | 15.9
COc1ccc(Cl)cc1NC(=O)c1cc(-c2cc(C)ccc2O)n[nH]1 | 15.7
Cc1noc(C)c1COc1ccc(CC(=O)NCCc2ccccn2)cc1 | -9.23
Cn1c(=O)c2c(Nc3ccc(F)cc3)cc(=O)n(-c3ccccc3)c2n(C)c1=O | 8.29
COc1ccc(N2CCN(CCCN)CC2)cc1 | 8.6
COc1ccc(-c2nsc3c(N4CCCC4)ncnc23)cc1 | -2.81
COCCCNC(=O)Cn1nnc(-c2ccc(NC(=O)c3ccc(F)cc3)cc2)n1 | 11.9
O=C(Nc1cccc(O)c1)c1c(O)c2ccccc2[nH]c1=O | 11.7
O=C(c1cc2c(=O)n3ccccc3nc2s1)N1CCOCC1 | -10.5
O=C(CNC(=O)c1cn2ccccc2n1)Nc1ccc(F)c(F)c1 | 6.43
O=C(c1ccc(N2CCCS2(=O)=O)cc1)N1CCN(c2ccccc2)CC1 | -8.92
O=C(NCCN1CCOCC1)c1sc2ccccc2c1Cl | -6.21
